Like-named read-outs stand apart in the source and are kept apart here.
Assay: Determination of logP-values by HPLC (EEC-Directive 79/831 Annex V. A8)
From the text: Determination of logP-values was made according to EEC-Directive 79/831. Annex V. A8 by HPLC (gradient method, acetonitrile/0.1% aqueous phosphoric acid).

[1] = HPLC gradient method, acetonitrile/0.1% aqueous phosphoric acid

Row | SMILES | log P | other results
1 | CCCCCC[C@@H]1C(=O)N[C@@]2([C@@H](O)C(C)C)C(=O)O[C@@]12C [Example 9, (1R,4S,5S)-4-hexyl-1-[(1S)-1-hydroxy-2-methylpropyl]-5-methyl-6-oxa-2-azabicyclo[3.2.0]heptane-3,7-dione] | – | logP*) [1]: 2.79
2 | CCCCCC[C@H](C(=O)OC)[C@H](O)C[C@@]1(C(=O)OC)N=C(c2ccccc2)O[C@H]1C(C)C | 5.56 | –
3 | CCCCCC[C@H]1C(=O)N[C@](C(=O)O)([C@@H](O)C(C)C)[C@@]1(C)O | – | log P [1]: 1.86
4 | CCCCCC[C@H]1C(=O)N[C@@]2([C@@H](O)C(C)C)C(=O)O[C@@]12C [Example 8, (1R,4R,5S)-4-hexyl-1-[(1S)-1-hydroxy-2-methylpropyl]-5-methyl-6-oxa-2-azabicyclo[3.2.0]heptane-3,7-dione] | – | logP*) [1]: 2.87
5 | CCCCCC[C@H](C(=O)OC)[C@@H](O)C[C@@]1(C(=O)OC)N=C(c2ccccc2)O[C@H]1C(C)C | 5.93 | –
6 | CCCCCC[C@@H](C(=O)OC)[C@H](O)C[C@@]1(C(=O)OC)N=C(c2ccccc2)O[C@H]1C(C)C | 5.32 | –
7 | CCCCCC[C@H]1C(=O)N[C@](C(=O)OC)([C@@H](O)C(C)C)[C@@]1(C)O | – | log P [1]: 2.16
8 | CCCCCC[C@@H](C(=O)OC)[C@@H](O)C[C@@]1(C(=O)OC)N=C(c2ccccc2)O[C@H]1C(C)C | 5.48 | –
